Reference: the supplement of paper PMC13380429

Tests used:
HepG2 [1] = experiment: drug sensitivity score (DSS) for viability; higher = more toxic; extreme values may be limits of the assay; conditions: 72 h
U2OS = experiment: as above; conditions: 72 h
Calu-3 = experiment: as above; conditions: 72 h
Caco-2 = experiment: as above; conditions: 72 h
Vero E6 = experiment: as above; conditions: 72 h
HepG2 [2] = experiment: cell viability relative to DMSO; higher = less toxic; conditions: 72 h; 100 nM

`CN1C2CCC1CC(OC(=O)C(O)c1ccccc1)C2` (stereo unspecified) [Homatropine Bromide] was tested, and the drug sensitivity score (HepG2 [1]) was 0, the drug sensitivity score (U2OS) was 0 and the drug sensitivity score (Calu-3) was 0. The drug sensitivity score (Caco-2) was 0, the drug sensitivity score (Vero E6) was 0 and the cell viability (HepG2 [2]) was 86.9%.
